Data taken from the supplement of paper PMC3334620.
Whole data set: some 33,000 sequences, median “E-score (-0.5 to 0.5)” near -0.043, cut for the highest 2% near 0.37. Some of the results follow.

molecular target: T1, Upc2 (UniProt Q12151); assay: PBM E-score (8-mer binding enrichment) (E-score (-0.5 to 0.5)); higher = stronger / more preferred TF binding; most listed sequences are background and not binding sites; settings: protein concentration: 200 nM; construct: GST-full length
T1 sequence: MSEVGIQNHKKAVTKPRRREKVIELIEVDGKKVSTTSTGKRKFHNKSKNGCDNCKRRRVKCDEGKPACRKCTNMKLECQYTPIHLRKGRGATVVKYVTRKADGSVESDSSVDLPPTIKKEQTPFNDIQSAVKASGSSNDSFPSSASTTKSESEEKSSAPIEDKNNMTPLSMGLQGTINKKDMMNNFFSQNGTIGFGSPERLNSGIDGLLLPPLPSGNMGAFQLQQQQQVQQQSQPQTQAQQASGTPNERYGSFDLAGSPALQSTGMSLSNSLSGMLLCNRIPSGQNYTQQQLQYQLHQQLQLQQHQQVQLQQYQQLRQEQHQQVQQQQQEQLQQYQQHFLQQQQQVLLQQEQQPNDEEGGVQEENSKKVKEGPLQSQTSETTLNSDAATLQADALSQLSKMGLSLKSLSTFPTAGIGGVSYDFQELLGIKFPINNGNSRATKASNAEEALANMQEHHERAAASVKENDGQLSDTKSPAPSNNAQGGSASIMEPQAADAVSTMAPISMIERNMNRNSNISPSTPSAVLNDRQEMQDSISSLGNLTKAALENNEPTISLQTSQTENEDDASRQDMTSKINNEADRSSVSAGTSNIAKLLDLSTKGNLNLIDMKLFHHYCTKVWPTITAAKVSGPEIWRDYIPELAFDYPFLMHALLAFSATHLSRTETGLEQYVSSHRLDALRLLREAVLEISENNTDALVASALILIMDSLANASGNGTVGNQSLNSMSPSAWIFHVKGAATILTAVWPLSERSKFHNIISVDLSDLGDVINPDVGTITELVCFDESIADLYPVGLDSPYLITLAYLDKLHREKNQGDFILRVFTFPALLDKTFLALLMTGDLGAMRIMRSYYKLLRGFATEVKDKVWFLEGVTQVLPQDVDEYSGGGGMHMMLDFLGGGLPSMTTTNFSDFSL
Procedure, shortened: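 Universal all-10-mer Agilent arrays, fresh or stripped once, were converted to double-stranded form by primer extension. GST-tagged yeast transcription factors from PURExpress in vitro transcription/translation, full-length or DNA-binding domain only, were applied at about 100-200 nM and detected with fluorescent anti-GST. After masliner normalisation, the Universal PBM Analysis Suite scored each ungapped eight-base word together with its reverse complement by E-score.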

Row | Sequence | PBM E-score
1 | ACAGGTAC | 0.23
2 | TATCAGGA | 0.0996
3 | CAAACATC | -0.00545
4 | AACGCGCC | 0.192
5 | AAATAGTT | -0.014
6 | ATGGTAAG | -0.137
7 | GAAATTCC | -0.186
8 | ACCTACAA | -0.0249
9 | CTCGACTC | 0.034
10 | CACCCTAA | 0.0059
11 | GCGCTCAA | -0.0887
12 | ATCACTGC | -0.0525
13 | CGCCTCCA | -0.0849
14 | GAACGATC | 0.429
15 | TCACTGGA | -0.289
16 | CCTCCCGA | -0.053
17 | CTACCCGC | -0.283
18 | GTCTGTAA | 0.0716
19 | GGATGGAC | -0.0397
20 | CATTCTGA | -0.0524
21 | ACAGTTCA | 0.0458
22 | ACTCTAAG | -0.215
23 | CGATTGCA | 0.106
24 | ACTAGTCG | -0.0858
25 | CCCCTTAG | -0.0378

Row | Sequence | PBM E-score
26 | AACAACCC | 0.108
27 | CTGTCCTA | -0.121
28 | GATTCGTA | 0.438
29 | CATCGAAG | -0.137
30 | AATTCTGG | -0.138
31 | ATTCGTGC | -0.094
32 | ACTCATTC | -0.0932
33 | GTATATTA | 0.21
34 | CGCTATCC | 0.151
35 | AGGTCTAC | 0.0393
36 | TCTCCAAA | -0.107
37 | AAAGGCTT | -0.178
38 | AATGTTGA | -0.14
39 | TGATAGAA | -0.073
40 | GATTCTTA | 0.137
41 | AAGTGCTG | 0.0542
42 | GAGCTTAA | -0.0033
43 | CTTCCACC | -0.173
44 | CCGGTACG | 0.421
45 | AGGAGTAA | -0.183
46 | GCACTCGA | -0.074
47 | CCTTGGCG | -0.0871
48 | CGAATAGA | 0.167
49 | ACTTATTA | -0.00569
50 | ACCAGTTC | -0.0843

Row | Sequence | PBM E-score
51 | CATAAGCG | 0.13
52 | ATCTAGTA | 0.171
53 | GTCCGTAA | 0.279
54 | CCGGAGAA | -0.0173
55 | CGTGTGAC | -0.0865
56 | GCCATCCA | -0.197
57 | ATCAGGGA | -0.189
58 | AAGTTGGC | -0.124
59 | ATGCTATG | -0.0709
60 | GCTGTTCC | -0.178
61 | ATTCGTCC | 0.0624
62 | ATATACGA | 0.492
63 | CGCAGCGC | 0.00979
64 | ATAGCGAC | 0.17
65 | ACATGTCT | -0.0129
66 | AAAGTGAG | -0.0574
67 | AGAGGGCA | -0.369
68 | GCGCCCAC | -0.143
69 | ACGAAACT | 0.382
70 | CTAGTGGA | -0.212
71 | AATGCTAC | 0.0344
72 | CGCATTCA | -0.00072
73 | GTCTCTTA | 0.224
74 | AAGCAACG | 0.0123
75 | GAACCGCA | 0.00543

Row | Sequence | PBM E-score
76 | AACCTAGA | -0.0534
77 | ATGACTGA | -0.212
78 | ATTTAATG | 0.0817
79 | ATGTAGCC | -0.221
80 | ACATTGGA | -0.219
81 | ACGAAGCT | 0.307
82 | AGAGCCGC | -0.201
83 | CCGCAACA | -0.00775
84 | CGCATCAG | 0.0112
85 | CCGTTCTA | 0.096
86 | CGCGCCAA | 0.146
87 | TGAAGGAA | -0.134
88 | ACGGGTCG | 0.309
89 | ATATCACC | 0.0514
90 | GCTGATCA | -0.171
91 | TATTGAAA | 0.0372
92 | ATTCTTGA | -0.00327
93 | ATTGCCCG | 0.0261
94 | AGCGCTGA | 0.0452
95 | CATGGCAG | -0.0996
96 | ATCAACCA | -0.186
97 | CCGAGCCG | 0.106
98 | CCGGTTAC | 0.202
99 | ATGATCAA | -0.00713
100 | GGTCCTAC | -0.129

Row | Sequence | PBM E-score
101 | GGGCGTCA | -0.223
102 | GCCGCCAA | -0.0764
103 | GATTTCAC | -0.0136
104 | CGCAAATA | 0.0612
105 | CCCTCACC | -0.241
106 | GAACATGC | -0.031
107 | CAATCGCC | -0.00123
108 | AGCGATCG | 0.215
109 | ATCAGCAC | -0.101
110 | AATTCAAT | 0.103
111 | AGTCGAAC | 0.0362
112 | ACGAAATC | 0.286
113 | GCGCGGCC | -0.0982
114 | ACGCCCTG | 0.0275
115 | CATGCGCA | -0.132
116 | AATGGGCT | -0.0961
117 | TGGGGTAA | 0.0421
118 | CCGACGCA | -0.0765
119 | AACCGGAA | 0.143
120 | ACCCAATA | -0.0303
121 | AGCGCTGC | -0.137
122 | CAACACAA | 0.0721
123 | ATAACATG | -0.113
124 | GATAATAC | -0.0546
125 | ATACATAT | 0.128

Row | Sequence | PBM E-score
126 | AATGTAAG | 0.0556
127 | ACGCAGGA | 0.0909
128 | AAGAGGGG | -0.0457
129 | CCGCGTCG | 0.0115
130 | GCTTTAAA | 0.036
131 | CATGTGTA | 0.041
132 | AGGCCAAG | -0.17
133 | AGGAGCAC | -0.0424
134 | AACAGGGA | -0.0461
135 | CGAATGCA | 0.16
136 | CAGAGTGC | -0.192
137 | AGCCTCTA | -0.151
138 | CCCACCCC | 0.033
139 | ACATCTTG | -0.155
140 | AGATATTC | -0.25
141 | AATAAACG | 0.429
142 | GGCTCGTA | 0.472
143 | GTTTACAA | 0.164
144 | CTCATTAC | 0.0555
145 | TCCGCCAA | -0.216
146 | GGCATGCA | 0.0402
147 | ACGGCCTC | 0.174
148 | ACTTGCTG | -0.221
149 | AACCCTAC | -0.147
150 | ATGGACCC | -0.159

Row | Sequence | PBM E-score
151 | ATTATACG | 0.482
152 | CTGAAGAC | -0.078
153 | CCGAGTAA | 0.231
154 | GGTCACAC | -0.153
155 | ACGACTTA | 0.357
156 | GACTGCAC | -0.101
157 | CCAGACAA | -0.0816
158 | TACTACGA | 0.241
159 | TAACCCGA | 0.147
160 | TCCTCTAA | -0.14
161 | TAGGGTGA | -0.106
162 | CTACCCTA | -0.185
163 | ACAAATAC | 0.158
164 | ATCGGGAC | -0.0497
165 | CGTCTCCA | -0.0186
166 | AAGGGATC | 0.138
167 | CGGAGATA | 0.252
168 | AGTCCAGA | -0.166
169 | AGGAGCTA | -0.158
170 | ATCCCGTA | 0.373
171 | CAGCACCG | -0.18
172 | CAGTAGGG | -0.253
